Results are given in words; binding and its absence hold for the method and conditions named. For part of these data: Binding seen in cells or lysates may run through a third protein. Some binding calls cover weakened binding; strength is not graded here. Sequences can lack the tags named with a protein.
B1: αKNL2-N (1 to 363 aa) fused to a Venus fragment (BiFC) (domain or fragment, UniProt F4KCE9 1-363)
chain: MTEPNLDEDGSKSSFQKTVVLRDWWLIKCPKEFEGKQFGVAGFEESVETRAMRVFTSSPITKALDVFTLLASDGIYITLRGFLNKERVLKNGFNPEISREFIFGFPPCWERVCNSCFEGDSFGTDVNTVPSTIEKACPPILSPCKYSNRNLKDNPAESREKSNVTETDIAEINDKGGSGARDIKTARRRSLHLQIKRILESSKVRKTANDGDHGSEFLNTAKRGDVERDGCEVINNEDSEWKLDESEVQNLCNDGDNGSEGFIKAKSSDVEKDKSEAIDNDVISPAVGSGIKHTGADNVDKVTSASATGESLTSEQQNGLLVTTASPHSLLKDLAKSSKPEKKGISKKSGKILRSDDNVVDPM
B2: αKNL2^ΔD-box2-VENn (protein, UniProt F4KCE9)
chain: MTEPNLDEDGSKSSFQKTVVLRDWWLIKCPKEFEGKQFGVAGFEESVETRAMRVFTSSPITKALDVFTLLASDGIYITLRGFLNKERVLKNGFNPEISREFIFGFPPCWERVCNSCFEGDSFGTDVNTVPSTIEKACPPILSPCKYSNRNLKDNPAESREKSNVTETDIAEINDKGGSGARDIKTARHLQIKRILESSKVRKTANDGDHGSEFLNTAKRGDVERDGCEVINNEDSEWKLDESEVQNLCNDGDNGSEGFIKAKSSDVEKDKSEAIDNDVISPAVGSGIKHTGADNVDKVTSASATGESLTSEQQNGLLVTTASPHSLLKDLAKSSKPEKKGISKKSGKILRSDDNVVDPMNYSGTKVKSAENKRKIDASKLQSPTSNVAEHSKEGLNNAKSNDVEKDVCVAINNEVISPVKGFGKRLSGTDVERLTSKNATKESLTSVQRKGRVKVSKAFQDPLSKGKSKKSEKTLQSNSNVVEPMNHFRSEAEEAEENLSWEKIKRKIDFDVEVTPEKKVKQQKTNAASTDSLGQKRSRSGRVLVSSLEFWRNQIPVYDMDRNLIQVKDGSETNSAPSKGKGSDSRKRRNLKIK
B3: APC10 (Anaphase-Promoting Complex subunit 10) fused to the GAL4 activation domain (protein, UniProt Q9ZPW2 1-192)
chain: MATESSESEEEGKISGGNYKLIIDDDLREMGKNAAWSVSSCKPGNGVTTLRDDNLETYWQSDGLQPHLINIQFQKKVKLQLVVLYVDFKLDESYTPSKISIRAGDGFHNLKEIKSVELVKPTGWVCLSLSGTDPRETFVNTFMLQIAILSNHLNGRDTHIRQIKVYGPRPNPIPHQPFQFTSMEFLTYSTLR
B4: αKNL2^ΔD-box1-VENn (protein, UniProt F4KCE9)
chain: MTEPNLDEDGSKSSFQKTVVLRDWWLIKCPKEFEGKQFGVAGFEESVETRAMRVFTSSPITKALDVFTLLASDGIYITLNKERVLKNGFNPEISREFIFGFPPCWERVCNSCFEGDSFGTDVNTVPSTIEKACPPILSPCKYSNRNLKDNPAESREKSNVTETDIAEINDKGGSGARDIKTARRRSLHLQIKRILESSKVRKTANDGDHGSEFLNTAKRGDVERDGCEVINNEDSEWKLDESEVQNLCNDGDNGSEGFIKAKSSDVEKDKSEAIDNDVISPAVGSGIKHTGADNVDKVTSASATGESLTSEQQNGLLVTTASPHSLLKDLAKSSKPEKKGISKKSGKILRSDDNVVDPMNYSGTKVKSAENKRKIDASKLQSPTSNVAEHSKEGLNNAKSNDVEKDVCVAINNEVISPVKGFGKRLSGTDVERLTSKNATKESLTSVQRKGRVKVSKAFQDPLSKGKSKKSEKTLQSNSNVVEPMNHFRSEAEEAEENLSWEKIKRKIDFDVEVTPEKKVKQQKTNAASTDSLGQKRSRSGRVLVSSLEFWRNQIPVYDMDRNLIQVKDGSETNSAPSKGKGSDSRKRRNLKIK
B5: UBC19 fused to the GAL4 activation domain (enzyme, UniProt Q9LJZ5 1-181)
chain: MATVNGYTGNTPAATTPAATGSKQSAPPTKTVDSHSVLKRLQSELMGLMMGADPGISAFPEEDNIFCWKGTITGSKDTVFEGTEYRLSLTFSNDYPFKSPKVKFETCCFHPNVDLYGNICLDILQDKWSSAYDVRTILLSIQSLLGEPNISSPLNNQAAQLWSNQEEYRKMVEKLYKPLNA
B6: UBC20 fused to the GAL4 activation domain (enzyme, UniProt Q8L7T3 1-180)
chain: MAAVNGYQGNTPADPPASNGSKQPAAPTKTVDSQSVLKRLQSELMGLMMGGGPGISAFPEEDNIFCWKGTITGSKDTVFEGTEYRLSLSFSNDYPFKPPKVKFETCCFHPNVDVYGNICLDILQDKWSSAYDVRTILLSIQSLLGEPNISSPLNTQAAQLWSNQEEYRKMVEKLYKPPSA
B7: CUL3 fused to the GAL4 activation domain (protein, UniProt Q9ZVH4 1-732)
chain: MSNQKKRNFQIEAFKHRVVVDPKYADKTWQILERAIHQIYNQDASGLSFEELYRNAYNMVLHKFGEKLYTGFIATMTSHLKEKSKLIEAAQGGSFLEELNKKWNEHNKALEMIRDILMYMDRTYIESTKKTHVHPMGLNLWRDNVVHFTKIHTRLLNTLLDLVQKERIGEVIDRGLMRNVIKMFMDLGESVYQEDFEKPFLDASSEFYKVESQEFIESCDCGDYLKKSEKRLTEEIERVAHYLDAKSEEKITSVVEKEMIANHMQRLVHMENSGLVNMLLNDKYEDLGRMYNLFRRVTNGLVTVRDVMTSHLREMGKQLVTDPEKSKDPVEFVQRLLDERDKYDKIINTAFGNDKTFQNALNSSFEYFINLNARSPEFISLFVDDKLRKGLKGITDVDVEVILDKVMMLFRYLQEKDVFEKYYKQHLAKRLLSGKTVSDDAERSLIVKLKTECGYQFTSKLEGMFTDMKTSEDTMRGFYGSHPELSEGPTLIVQVLTTGSWPTQPAVPCNLPAEVSVLCEKFRSYYLGTHTGRRLSWQTNMGTADIKAIFGKGQKHELNVSTFQMCVLMLFNNSDRLSYKEIEQATEIPAADLKRCLQSLACVKGKNVIKKEPMSKDIGEEDLFVVNDKFTSKFYKVKIGTVVAQKETEPEKQETRQRVEEDRKPQIEAAIVRIMKSRKILDHNNIIAEVTKQLQPRFLANPTEIKKRIESLIERDFLERDSTDRKLYRYLA

Sequences of proteins named here, by UniProt entry; tags and fusion partners are left off.
UniProt Q94AH6: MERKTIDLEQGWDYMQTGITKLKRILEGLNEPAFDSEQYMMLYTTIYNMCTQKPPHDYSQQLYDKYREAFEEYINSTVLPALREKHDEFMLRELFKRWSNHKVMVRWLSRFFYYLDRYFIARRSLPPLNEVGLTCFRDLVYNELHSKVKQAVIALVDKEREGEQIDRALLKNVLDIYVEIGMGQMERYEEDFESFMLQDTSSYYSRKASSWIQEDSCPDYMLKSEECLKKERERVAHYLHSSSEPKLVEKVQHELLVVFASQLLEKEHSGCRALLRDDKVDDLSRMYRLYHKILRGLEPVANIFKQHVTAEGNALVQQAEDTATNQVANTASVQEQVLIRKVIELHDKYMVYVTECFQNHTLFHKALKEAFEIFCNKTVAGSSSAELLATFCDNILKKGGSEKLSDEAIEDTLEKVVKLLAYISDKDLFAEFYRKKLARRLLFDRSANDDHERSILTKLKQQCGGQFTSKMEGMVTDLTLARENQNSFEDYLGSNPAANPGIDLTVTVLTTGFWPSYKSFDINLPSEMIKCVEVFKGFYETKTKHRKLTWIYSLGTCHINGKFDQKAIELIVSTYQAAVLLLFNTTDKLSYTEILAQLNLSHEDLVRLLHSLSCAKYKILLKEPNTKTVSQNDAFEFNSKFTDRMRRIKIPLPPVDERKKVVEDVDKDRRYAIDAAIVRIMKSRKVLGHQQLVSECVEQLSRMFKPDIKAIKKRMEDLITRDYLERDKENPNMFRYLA

Key:
[1] = biological target: T1, αKNL2 (KINETOCHORE NULL2), full length, fused to the GAL4 DNA-binding domain (Arabidopsis thaliana) (UniProt F4KCE9); test: two-hybrid; cotransformation of pGBKT7 (BD, bait) and pGADT7 (AD, prey) into S. cerevisiae Y2H Gold; drop dilutions on -LT and -LTH (triple dropout) medium, 30 °C
T1 sequence: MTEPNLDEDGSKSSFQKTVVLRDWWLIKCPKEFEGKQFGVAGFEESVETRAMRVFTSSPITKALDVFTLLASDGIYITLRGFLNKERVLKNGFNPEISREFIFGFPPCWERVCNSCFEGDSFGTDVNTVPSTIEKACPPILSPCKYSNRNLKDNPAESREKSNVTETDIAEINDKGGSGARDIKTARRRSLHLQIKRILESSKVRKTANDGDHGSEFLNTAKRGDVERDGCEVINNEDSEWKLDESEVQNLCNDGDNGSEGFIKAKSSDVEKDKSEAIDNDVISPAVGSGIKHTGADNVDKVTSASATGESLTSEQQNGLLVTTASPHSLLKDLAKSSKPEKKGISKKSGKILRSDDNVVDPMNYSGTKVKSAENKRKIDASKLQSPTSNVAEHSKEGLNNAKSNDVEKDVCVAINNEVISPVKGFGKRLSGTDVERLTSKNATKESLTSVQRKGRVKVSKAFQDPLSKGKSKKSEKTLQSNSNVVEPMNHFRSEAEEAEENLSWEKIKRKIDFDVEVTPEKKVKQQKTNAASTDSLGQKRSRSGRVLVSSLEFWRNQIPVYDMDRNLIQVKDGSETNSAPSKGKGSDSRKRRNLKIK

[2] = biological target: T2, αKNL2-C (C-terminal fragment of αKNL2, 364 to 599 aa) fused to the GAL4 DNA-binding domain (Arabidopsis thaliana) (UniProt F4KCE9); test: as above
T2 sequence: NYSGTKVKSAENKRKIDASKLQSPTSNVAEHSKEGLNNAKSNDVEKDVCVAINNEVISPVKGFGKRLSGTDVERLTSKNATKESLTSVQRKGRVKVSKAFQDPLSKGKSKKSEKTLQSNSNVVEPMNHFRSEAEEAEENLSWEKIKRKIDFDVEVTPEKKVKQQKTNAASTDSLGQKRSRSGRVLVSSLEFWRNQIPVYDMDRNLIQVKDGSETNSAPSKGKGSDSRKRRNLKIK

[3] = biological target: T3, APC10 fused to a Venus fragment and HA (BiFC and Co-IP) (Arabidopsis thaliana) (UniProt Q9ZPW2); test: split reporter; BiFC in N. benthamiana leaves co-infiltrated with A. tumefaciens GV3101 carrying the VENn and VENc fusions (both directions) and HC-Pro; Venus fluorescence in nuclei; some combinations also scored after MG115
T3 sequence: B3 chain

[4] = biological target: T4, APC2 fused to a Venus fragment (BiFC) (Arabidopsis thaliana) (UniProt Q8H1U5); test: as above
T4 sequence: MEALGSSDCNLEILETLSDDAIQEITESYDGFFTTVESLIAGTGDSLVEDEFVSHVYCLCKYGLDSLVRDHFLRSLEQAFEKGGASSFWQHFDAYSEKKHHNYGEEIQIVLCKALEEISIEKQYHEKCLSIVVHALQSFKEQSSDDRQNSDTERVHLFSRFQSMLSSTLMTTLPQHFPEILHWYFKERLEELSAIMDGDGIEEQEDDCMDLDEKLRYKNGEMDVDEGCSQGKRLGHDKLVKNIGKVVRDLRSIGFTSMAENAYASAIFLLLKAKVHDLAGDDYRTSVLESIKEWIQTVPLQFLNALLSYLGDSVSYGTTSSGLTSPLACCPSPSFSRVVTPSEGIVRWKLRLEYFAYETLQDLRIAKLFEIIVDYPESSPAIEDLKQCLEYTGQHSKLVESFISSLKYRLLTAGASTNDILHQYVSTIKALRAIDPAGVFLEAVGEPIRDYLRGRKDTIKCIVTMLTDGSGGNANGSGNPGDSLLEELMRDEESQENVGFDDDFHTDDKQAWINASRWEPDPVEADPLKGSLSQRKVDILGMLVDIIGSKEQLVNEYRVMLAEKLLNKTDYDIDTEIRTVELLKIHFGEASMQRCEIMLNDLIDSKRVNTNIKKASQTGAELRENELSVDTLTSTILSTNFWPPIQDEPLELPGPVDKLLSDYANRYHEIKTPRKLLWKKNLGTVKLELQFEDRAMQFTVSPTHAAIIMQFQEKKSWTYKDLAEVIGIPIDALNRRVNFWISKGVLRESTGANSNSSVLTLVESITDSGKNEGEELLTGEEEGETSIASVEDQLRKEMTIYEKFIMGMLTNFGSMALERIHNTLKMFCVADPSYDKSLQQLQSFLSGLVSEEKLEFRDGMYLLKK

[5] = biological target: T5, CDC20.1 fused to a Venus fragment and HA (BiFC and Co-IP) (Arabidopsis thaliana) (UniProt Q9SZA4); test: as above
T5 sequence: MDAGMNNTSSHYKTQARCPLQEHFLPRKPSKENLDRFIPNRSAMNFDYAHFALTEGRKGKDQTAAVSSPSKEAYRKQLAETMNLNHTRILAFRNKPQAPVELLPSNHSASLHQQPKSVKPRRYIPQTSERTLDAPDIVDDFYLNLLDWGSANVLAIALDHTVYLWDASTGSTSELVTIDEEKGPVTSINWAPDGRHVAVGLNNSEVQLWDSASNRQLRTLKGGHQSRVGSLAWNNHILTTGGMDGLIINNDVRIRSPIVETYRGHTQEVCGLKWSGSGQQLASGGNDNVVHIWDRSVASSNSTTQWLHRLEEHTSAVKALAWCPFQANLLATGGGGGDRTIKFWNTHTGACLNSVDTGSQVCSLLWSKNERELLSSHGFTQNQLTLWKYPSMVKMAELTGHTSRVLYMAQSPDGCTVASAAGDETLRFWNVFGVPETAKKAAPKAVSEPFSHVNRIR

Molecule	binding [2]	binding [5]	other results
CUL1 fused to the GAL4 activation domain (from UniProt Q94AH6 1-738)	no binding	–	binding [1]: no binding
B1	–	binds	binding [3]: binds; binding [4]: binds
B2	–	binds	–
B3	binds	–	–
B4	–	no binding	–
B5	no binding	–	–
B6	no binding	–	–
B7	no binding	–	binding [1]: no binding

From publication PMC12231567
